The list shows a part of the results.
B1: chr16:30603633:30603734:-|3pUTR|ENSG00000156853|unk|FALSE|unique (ssRNA)
RNA: GGGAGUUCUACAGUCCGACGAUCGUUAAGUACCACAUUCUCCUCUAAACCUUGCCUACGACAUGUUUAAUACUUCAUCUACAUAGCAGCCCUUCAGAUAAUCACAACCACUUUGCCCCCAAGUUUUCAGGUUAAGUAGCAUGACAACAGAGGAUUGAGCAUCA
B2: chr1:155884367:155884468:+|3pUTR|ENSG00000132718|msi1|total|mutant (ssRNA)
RNA: GGGAGUUCUACAGUCCGACGAUCUGGGUCUACUGAGCAGUGGGUGCUGAGGUGACAGGGGAGGAACCAGUUGUUCUGCCGCCCCGGAACUGCCUCAGUGUCUUUGCCAGAAAAAGGCAAAGAGGCGGACAGUGCAGGGCUCCUCAACAGAGGAUUGAGCAUCA
B3: chr3:44446857:44446958:-|CDS|ENSG00000185219|msi1|total|mutant (ssRNA)
RNA: GGGAGUUCUACAGUCCGACGAUCGGGAGACAUACCCUUUCCAGUCACCAGAGGAAACACACCAGAGCAGCACAGGCUGAACGCCGCCCGCCUGCACGGUCUUCCUCUCAGGACACAAAGUUGAGAUUACAGAAGCUAAAACCACAACAGAGGAUUGAGCAUCA
B4: chrX:46853785:46853899:+|CDS|ENSG00000102218|unk|FALSE|unique (ssRNA)
RNA: GGGAGUUCUACAGUCCGACGAUCCAUCAUUGAGUCUUCCUCAAAUAUCAAAUUUGGAUGUUUUCAAUGGUACUAUCCUGAAUUAGCUUUCCAGUUCAAAGAUGCAGGGCUAAGUAUCUUCAACAAUACAUGGAGUAACAUUCACAACAGAGGAUUGAGCAUCA
B5: chr22:37084134:37084404:-|CDS|ENSG00000187045|control|control|control (ssRNA)
RNA: GGGAGUUCUACAGUCCGACGAUCCUUCCUCUCCUCCCUCUGGCUUCCUUUCCUCCCUCCCCCUCCCUCUCUUCCCUCCUCAAUAGUGACCCCCUCAUUGGAAGCCCAAGUCCCCAAUCUCAGAGGGGCAGCAAGGGGAGCGAGCAACAGAGGAUUGAGCAUCA
B6: chr11:10770493:10770605:+|CDS|ENSG00000198730|unk|total|mutant (ssRNA)
RNA: GGGAGUUCUACAGUCCGACGAUCACAUGUGGCACCCAGUGAUACAGUUCUUAUGUUUAAUGUGGCCUUGGUCCUGCAAAGAUCCGCUACCUCUGUCCUGAAAGAUGAAAAAAGUAAUCUGAAGGAAGUACUUAAUGCUGUGAACAACAGAGGAUUGAGCAUCA
B7: chr6:41683977:41685078:-|three_prime_utr|ENSG00000112561|control|control|control (ssRNA)
RNA: GGGAGUUCUACAGUCCGACGAUCUCCCCGUCCGGCAUGAACAUGGCUGAGCUGGCCCAGCAGGUGGUGAAGCAGGAGCUGCCUAGCGAAGAGGGCCCAGGGGAGGCCCUGAUGCUGGGGGCUGAGGUCCCUGACCCUGAGCCACAACAGAGGAUUGAGCAUCA
B8: chr15:48878618:48878734:+|CDS|ENSG00000255302|unk|FALSE|bound_elsewhere (ssRNA)
RNA: GGGAGUUCUACAGUCCGACGAUCAGAACCAGCCCUGGAUGGCGGGUUUCAGAUGCAUUAUGAGAAGACCCCGUUUGAUCAGUUAGCUUUUAUCGAAGAGCUUUUUUCACUGAUGGUUGUCAAUCGUCUGACCGAAGAACUCGGCAACAGAGGAUUGAGCAUCA
B9: ENSG00000070961:be:win_5901|3pUTR|ENSG00000070961|bound_else_gene|NA|bound_elsewhere_windowed (ssRNA)
RNA: GGGAGUUCUACAGUCCGACGAUCGUAUUGAGCUUUUACAGUAUUCAUUUUUCAACUCAAGGCAAUGGCUUUCUACACCAACUCUAAUCCAUAAACGGGUCUUAUGACAUCUAUGAAGUAGUAGCAAGACAUGCUUAGUGUGUACAACAGAGGAUUGAGCAUCA
B10: chr2:85351679:85351862:-|CDS|ENSG00000042445|control|control|control (ssRNA)
RNA: GGGAGUUCUACAGUCCGACGAUCGAAGCUGGAUGUGGUGGUAAUUGGCAGUGGCUUUGGGGGCCUGGCUGCAGCUGCAAUUCUAGCUAAAGCUGGCAAGCGAGUCCUGGUGCUGGAACAACAUACCAAGGCAGGGGGCUGCUGCAACAGAGGAUUGAGCAUCA
B11: chr1:156672197:156672316:-|CDS|ENSG00000132688|unk|FALSE|bound_elsewhere (ssRNA)
RNA: GGGAGUUCUACAGUCCGACGAUCGACAUUGCAAUCCCUGCAAAAGGAGAAUCAAGAACUAAUGAAAUCUCUUGAAGGUAAUCUAGAGACAUUUUUAUUUCCAGGAACGGAAAAUCAAGAAUUAGUAAGUUCUCUGCAAGAGAACAACAGAGGAUUGAGCAUCA
B12: chr9:99150529:99150630:+|3pUTR|ENSG00000106799|msi1|FALSE|unique (ssRNA)
RNA: GGGAGUUCUACAGUCCGACGAUCCAUUUGUUAUGUAUGUAGGAGUAAACGUUCGGUGGAUCCUCUGUCUUUGUAACUGAGGUUAGAGCUAGUGUGGUUUUGAGGUCUCACUACACUUUGAGGAAGGCAGCUUUUAAUUCAGUGCAACAGAGGAUUGAGCAUCA
B13: chr12:120700859:120700960:+|3pUTR|ENSG00000110917|msi1|total|mutant (ssRNA)
RNA: GGGAGUUCUACAGUCCGACGAUCUCUUUGCAUCUGUGUGGCUUGCUUCCAGUCUGGCCUGUCCUUUCCAGCUGCCUUUUGUCCCGCCUGCUAUGGGGGGCCAGAUUAUCUUGAUAAGAGCAGGUGAUUUGGGGACCCGCUGGGCAACAGAGGAUUGAGCAUCA
B14: chr19:34469546:34469571:+|3pUTR|ENSG00000126261|msi1_unk|total|mutant (ssRNA)
RNA: GGGAGUUCUACAGUCCGACGAUCGUUGCCUUUUUAAUGUAAAUACCCGCCGGUAUCAUUAACCGUUUCAAAAUAUUGUGGUUCCGUAAAGUUGAUACCUGGUUAUAAAUAUUAUGCCUUUAUUUUUGGCCCGAAGAAGAAUUACAACAGAGGAUUGAGCAUCA

Molecular target: MSI1 full-length (mouse, UniProt Q61474 1-362)
UniProt Q61474, sequence (Q61474 whole entry): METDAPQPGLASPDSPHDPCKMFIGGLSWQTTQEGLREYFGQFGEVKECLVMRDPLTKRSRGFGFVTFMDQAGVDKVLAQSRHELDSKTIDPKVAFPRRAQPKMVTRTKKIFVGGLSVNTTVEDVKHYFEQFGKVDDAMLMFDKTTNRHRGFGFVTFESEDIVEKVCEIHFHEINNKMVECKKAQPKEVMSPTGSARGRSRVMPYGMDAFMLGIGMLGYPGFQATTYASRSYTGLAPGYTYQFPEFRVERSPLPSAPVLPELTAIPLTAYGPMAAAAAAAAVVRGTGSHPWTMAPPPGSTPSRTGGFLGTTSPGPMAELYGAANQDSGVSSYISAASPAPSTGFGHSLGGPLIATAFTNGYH
Assay: nsRBNS (natural sequence RNA bind-n-seq); RBNS binding buffer (assumed for nsRBNS): 25 mM Tris pH 7.5, 150 mM KCl, 3 mM MgCl2, 0.01% Triton X-100, 500 ug/ml BSA, 20 U/ml SUPERase-In, 4 C; UNK is unkempt and MSI1 is Musashi-1; names of the RNAs are library labels; protein concentration not given here; high values mean tight binding

Point of comparison: B1, binding signal 2.37 enrichment R. Against it:
- B2 — lower, 0.357 enrichment R
- B3 — lower, 0.417 enrichment R
- B4 — lower, 0.338 enrichment R
- B5 — lower, 1.16 enrichment R
- B6 — lower, 0.663 enrichment R
- B7 — lower, 0.352 enrichment R
- B8 — lower, 0.625 enrichment R
- B9 — higher, 2.99 enrichment R
- B10 — lower, 0.486 enrichment R
- B11 — lower, 0.503 enrichment R
- B12 — higher, 3.26 enrichment R
- B13 — lower, 0.392 enrichment R
- B14 — lower, 1.89 enrichment R
